{"source": "PubChem BioAssay AID2147", "about": "(National Center for Advancing Translational Sciences (NCATS), 2009)", "note": "Out of some 230,000 compounds screened, about 3,600 (1.6%) were called active. The inconclusive results got no clear call from the source; some entries with a clear call stand among them for comparison. Calls follow the shape of the dose curve; as a rule, active = well fitted inhibition curve with a large enough effect (not every such curve was filed as active); inconclusive = small, poorly fitted or top-dose-only effect, or another doubt; inactive = no such curve, though single readings can be large or run the other way. Where the call is inconclusive, the potency comes from a doubtful curve fit. Also: nearly all actives have a fitted effect of over 50% in size.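 For activity change, negative = inhibition in this document: 0% = wells with enzyme and -100% = buffer wells without enzyme.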 Potency is read from the fitted curve at half-maximal effect; tags tell the direction and shape of the fitted curve."}
{"target": "Lysine-specific demethylase 4E (Homo sapiens) (UniProt B2RXH2)", "sequence (B2RXH2 whole entry, looked up, the tested form may be a part)": "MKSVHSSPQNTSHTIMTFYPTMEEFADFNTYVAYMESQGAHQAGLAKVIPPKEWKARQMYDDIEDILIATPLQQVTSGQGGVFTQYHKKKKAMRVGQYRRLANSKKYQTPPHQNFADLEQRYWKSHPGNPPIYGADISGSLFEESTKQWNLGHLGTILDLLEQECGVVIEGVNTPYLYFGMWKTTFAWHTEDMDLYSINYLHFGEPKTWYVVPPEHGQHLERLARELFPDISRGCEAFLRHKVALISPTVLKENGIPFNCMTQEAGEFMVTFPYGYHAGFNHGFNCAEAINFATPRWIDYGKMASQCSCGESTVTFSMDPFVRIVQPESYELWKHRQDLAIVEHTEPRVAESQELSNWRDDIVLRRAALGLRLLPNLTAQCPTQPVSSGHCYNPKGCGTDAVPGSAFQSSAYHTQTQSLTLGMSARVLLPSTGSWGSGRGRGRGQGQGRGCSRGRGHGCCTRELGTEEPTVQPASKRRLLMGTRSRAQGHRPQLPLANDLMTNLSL", "experiment": "qHTS Assay for Inhibitors of Human Jumonji Domain Containing 2E (JMJD2E)", "settings": "JMJD2E catalytic domain, FDH-coupled NADH fluorescence (FDH is formaldehyde dehydrogenase); series mostly up to 57.1 µM; activity change, negative = inhibition: at the top concentration"}
{"smiles": "COc1ccc(C(CC(=O)N2CCN(c3ccccc3)CC2)c2c(OC)cc(OC)c3ccc(=O)oc23)cc1", "note": "(stereo not given)", "Potency": "inconclusive: 31.6 µM [inhibitor, single point]"}
{"smiles": "COCCn1cnc2c1c(=O)n(CC(=O)OCC(=O)NCC(F)(F)F)c(=O)n2Cc1ccccc1", "activity change, negative = inhibition": "inactive: 0.159%"}
{"smiles": "O=C(O)c1ccc(N2CCS(=O)(=O)CC2)cc1", "Potency": "inconclusive: 39.8 µM [inhibitor, single point]"}
{"smiles": "NNC(=O)CN1C(c2ccc(Cl)cc2)=Nc2ccc(Br)cc2C1c1ccccc1", "note": "(stereo not given)", "Potency": "inconclusive: 39.8 µM [inhibitor, single point]"}
{"smiles": "CCOC(=O)CC1=C(C(=O)OCC)C(c2cccs2)C(C#N)=C(N)O1", "note": "(stereo not given)", "Potency": "inconclusive: 39.8 µM [inhibitor, single point]"}
{"smiles": "COc1ccccc1CN(Cc1cc2cc(C)ccc2[nH]c1=O)Cc1nnnn1Cc1ccco1", "Potency": "inconclusive: 25.1 µM [inhibitor, partial curve]"}
{"smiles": "O=C(O)CSCC(=O)NCc1ccccc1", "activity change, negative = inhibition": "inactive: -9.96%"}
{"smiles": "COC(=O)c1cn(NC(=O)c2cc(OC)c(OC)c(OC)c2)c(=O)c2ccccc12", "Potency": "inconclusive: 39.8 µM [inhibitor, single point]"}
{"smiles": "Cc1ccc(C(C[N+](=O)[O-])c2c(C)[nH]n(-c3ccccc3)c2=O)cc1", "note": "(stereo not given)", "Potency": "inconclusive: 2.82 µM [inhibitor, full curve, poor fit]"}
{"smiles": "O=c1c2ccccc2nc(N2CCN(c3ccccc3)CC2)n1Cc1ccccc1", "Potency": "inconclusive: 35.5 µM [inhibitor, single point]"}
{"smiles": "Nc1c(O)cccc1C(=O)C[C@@H](N)C(=O)O", "Potency": "inconclusive: 12.6 µM [inhibitor, partial curve]"}
{"smiles": "CC1(C)CCCN(C(=O)c2ccc3c(c2NCCO)C(=O)c2ccccc2C3=O)C1", "activity change, negative = inhibition": "inactive: 6.33%"}
{"smiles": "CCN(CC)S(=O)(=O)c1ccc(NC2CCCc3ccccc32)nc1", "note": "(stereo not given)", "Potency": "inconclusive: 39.8 µM [inhibitor, single point]"}
{"smiles": "c1ccc(-n2ncc3c(NCc4ccccn4)ncnc32)cc1", "Potency": "inconclusive: 35.5 µM [inhibitor, single point]"}
{"smiles": "Cc1ccc2cc(CN(C(=O)c3ccco3)c3ccccc3)c(=O)[nH]c2c1", "Potency": "inconclusive: 20 µM [inhibitor, partial curve]"}
{"smiles": "CC(C)c1csc(CN2CCC(CO)(Cc3cccc(F)c3)CC2)n1", "Potency": "inconclusive: 3.98 µM [inhibitor, partial curve]"}
{"smiles": "O=C1c2ccccc2C(=O)N1c1ccc(Cc2ccncc2)cc1", "activity change, negative = inhibition": "inactive: -1.26%"}
{"smiles": "CC(NC(=O)c1cc2ccccc2o1)C(=O)O", "note": "(stereo not given)", "activity change, negative = inhibition": "inactive: 5.77%"}
{"smiles": "CCOc1ccc(-c2c(C(=O)N/N=C/c3ccc(O)cc3)nnn2-c2nonc2N)cc1", "Potency": "inconclusive: 31.6 µM [inhibitor, single point]"}
{"smiles": "CCN(CC)c1ccc2cc(-c3nc4ccccc4n3C)c(=O)oc2c1", "Potency": "inconclusive: 25.1 µM [inhibitor, partial curve]"}
{"smiles": "CS(=O)(=O)N1N=C(c2ccccc2)CC1c1ccc2c(c1)OCO2", "note": "(stereo not given)", "activity change, negative = inhibition": "inactive: 1.85%"}
{"smiles": "Cc1ccccc1-n1c(SCC(=O)N/N=C/c2sccc2C)nc2ccccc2c1=O", "activity change, negative = inhibition": "inactive: 4.54%"}
{"smiles": "CCCCCCCCCCCCCCCC(=O)NCC(COP(=O)([O-])OCC[N+](C)(C)C)OCC", "note": "(stereo not given)", "activity change, negative = inhibition": "inactive: 2.38%"}
{"smiles": "CC(=O)Nc1ccc(NC(=O)c2sc3nc4n(c(=O)c3c2C)CCCCC4)cc1", "activity change, negative = inhibition": "inactive: -4.71%"}
{"smiles": "CCc1ccc2[nH]c(=O)c(C(c3nnnn3Cc3ccc(OC)cc3)N3CCOCC3)cc2c1", "note": "(stereo not given)", "Potency": "inconclusive: 28.2 µM [inhibitor, single point]"}
{"smiles": "Cc1ccc(S(=O)(=O)/C(C#N)=C/c2c(N3CC(C)OC(C)C3)nc3ccccn3c2=O)cc1", "note": "(stereo not given)", "activity change, negative = inhibition": "inactive: -0.787%"}
{"smiles": "COc1ccccc1NS(=O)(=O)c1cc(NC(=O)c2ccc3ccccc3n2)ccc1Cl", "activity change, negative = inhibition": "inactive: -12%"}
{"smiles": "N#Cc1cc2cc3c(cc2nc1N1CCOCC1)OCO3", "Potency": "inconclusive: 28.2 µM [inhibitor, partial curve]"}
{"smiles": "Cc1cccn2c(=O)c(/C=C(\\C#N)C(=O)NCc3ccco3)c(N3CCCC(C)C3)nc12", "note": "(stereo not given)", "Potency": "inconclusive: 31.6 µM [inhibitor, partial curve]"}
{"smiles": "COc1ccc(-n2cnc3sc(-c4ccccc4)cc3c2=O)cc1", "Potency": "inconclusive: 35.5 µM [inhibitor, single point]"}
{"smiles": "O=[N+]([O-])c1ccc(N2CCN(C(=S)Nc3ccccc3)CC2)cc1", "activity change, negative = inhibition": "inactive: -0.823%"}
{"smiles": "CC(Oc1ccc(F)cc1)c1ccnc2nc(/N=C/N(C)C)nn12", "note": "(stereo not given)", "Potency": "inconclusive: 31.6 µM [inhibitor, partial curve]"}
{"smiles": "CN(C)c1ccc(NC(=O)c2sc(SCC(=O)Nc3ccc(Br)cc3)nc2N)cc1", "activity change, negative = inhibition": "inactive: 1.36%"}
{"smiles": "O=C(Nc1ccc(Cl)cc1Cl)c1ccc(-c2ccccc2)cc1", "Potency": "inconclusive: 28.2 µM [inhibitor, partial curve]"}
{"smiles": "O=C(Nc1ccc(-c2nc3ccc(NC(=O)c4cccs4)cc3[nH]2)cc1)c1cccs1", "Potency": "inconclusive: 35.5 µM [inhibitor, single point]"}
{"smiles": "COc1ccc(OC)c(NC(=O)c2cc(S(=O)(=O)NCc3ccco3)ccc2F)c1", "activity change, negative = inhibition": "inactive: 7.76%"}
{"smiles": "NS(=O)(=O)c1ccc(CCNc2ncnc3sccc23)cc1", "activity change, negative = inhibition": "inactive: -3.17%"}
{"smiles": "CN(CC(=O)O)S(=O)(=O)c1ccc2c(c1)n(C)c(=O)c(=O)n2C", "Potency": "inconclusive: 39.8 µM [inhibitor, single point]"}
{"smiles": "Cc1cc([N+](=O)[O-])nn1CC(=O)NNC(=S)Nc1ccc([N+](=O)[O-])cc1", "activity change, negative = inhibition": "inactive: 5.33%"}
{"smiles": "COc1cccc2[nH]c3c(=O)n(CCCN4CCOCC4)cnc3c12", "Potency": "inconclusive: 25.1 µM [inhibitor, partial curve]"}
{"smiles": "CCCc1ncc(C[n+]2ccccc2C)c(N)n1", "Potency": "inconclusive: 31.6 µM [inhibitor, single point]"}
{"smiles": "O=C(O)c1ccccc1-c1cn2cc(Cl)ccc2n1", "Potency": "inconclusive: 28.2 µM [inhibitor, single point]"}
{"smiles": "Cc1ccnc(NC(=S)NC(=O)/C=C/c2ccco2)c1", "Potency": "inconclusive: 39.8 µM [inhibitor, single point]"}
{"smiles": "COC(=O)c1c(NC(=O)COC(=O)Cn2cnc3ccccc32)sc(C)c1C", "Potency": "inconclusive: 39.8 µM [inhibitor, single point]"}
{"smiles": "CCc1c2c(nc3ccc(OC)cc13)OC(C)C2", "note": "(stereo not given)", "Potency": "inconclusive: 39.8 µM [inhibitor, single point]"}
